Results from PubChem BioAssay AID1030 (National Center for Advancing Translational Sciences (NCATS), 2008).
About 16,000 (7.3%) of roughly 220,000 compounds were called active. Inconclusive results, whose numbers are uncertain, are shown with a selection of clear calls. Calls follow the shape of the dose curve; as a rule, active = well fitted inhibition curve with a large enough effect (not every such curve was filed as active); inconclusive = small, poorly fitted or top-dose-only effect, or another doubt; inactive = no such curve, though single readings can be large or run the other way. A potency beside an inconclusive call is a rough fit, not a confirmed value.

Target: Aldehyde dehydrogenase 1A1 (Homo sapiens) (UniProt P00352)
Chain of UniProt P00352 (P00352 whole entry, looked up): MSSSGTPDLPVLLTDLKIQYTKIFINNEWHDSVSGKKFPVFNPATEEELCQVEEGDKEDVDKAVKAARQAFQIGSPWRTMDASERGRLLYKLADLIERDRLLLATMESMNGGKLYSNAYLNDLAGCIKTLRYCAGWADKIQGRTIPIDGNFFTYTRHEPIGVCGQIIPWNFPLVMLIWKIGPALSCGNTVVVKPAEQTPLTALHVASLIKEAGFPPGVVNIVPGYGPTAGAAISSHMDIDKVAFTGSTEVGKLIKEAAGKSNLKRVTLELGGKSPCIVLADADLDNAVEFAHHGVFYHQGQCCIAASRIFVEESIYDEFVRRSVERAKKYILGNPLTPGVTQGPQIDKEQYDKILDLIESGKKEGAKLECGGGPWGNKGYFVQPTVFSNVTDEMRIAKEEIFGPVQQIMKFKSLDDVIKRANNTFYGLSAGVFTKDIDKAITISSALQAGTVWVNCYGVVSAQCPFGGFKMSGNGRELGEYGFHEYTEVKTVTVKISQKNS
Test: qHTS Assay for Inhibitors of Aldehyde Dehydrogenase 1 (ALDH1A1)
Conditions: Purified ALDH1A1, NADH fluorescence, propionaldehyde substrate; series mostly up to 75.3 µM
Potency is read from the fitted curve at half-maximal effect; tags tell the direction and shape of the fitted curve.

Potency, inconclusive:
O=C(c1ccc(F)cc1)N1CCN(c2cnn(-c3ccccc3)c(=O)c2Cl)CC1 14.1 µM [inhibitor, partial curve]
O=C1NC2=C(CCc3ccccc32)C(c2ccccc2)N1 (stereo not given) 39.8 µM [inhibitor, single point]
COc1ccc(NC(=O)CCC(=O)OC(C(=O)c2ccccc2)c2ccccc2)cc1 (stereo not given) 35.5 µM [inhibitor, partial curve]
Cc1cc(C)n(CCc2nc(-c3cccs3)cs2)n1 39.8 µM [inhibitor, single point]
Cc1sc2nc(SCC(=O)Nc3c(C)n(C)n(-c4ccccc4)c3=O)n(C)c(=O)c2c1C 31.6 µM [inhibitor, single point]
Cc1c(C(=O)NC(=S)Nc2ccccc2N2CCCC2)cccc1[N+](=O)[O-] 35.5 µM [inhibitor, single point]
C=CCn1c(=NC(=O)C2CC2)sc2cc(NC(C)=O)ccc21 2.51 µM [inhibitor, full curve]
O=C(c1ccccc1)c1cc2ccc(O)cc2oc1=O 44.7 µM [inhibitor, single point]
COc1ccccc1OCC(=O)N/N=C1\CCCCc2ccccc21 39.8 µM [inhibitor, single point]
Cc1cc(C)nc(NS(=O)(=O)c2ccc(N/C=C3\CCCC3=O)cc2)n1 39.8 µM [inhibitor, single point]
CCCn1c(SCc2ccon2)nc2ccccc2c1=O 25.1 µM [inhibitor, single point]
Cc1c(C(=O)O)cccc1-c1ccc(C=O)o1 39.8 µM [inhibitor, single point]
COc1ccc2cnoc(=O)c2c1OC 31.6 µM [inhibitor, partial curve]
Cc1cccc(NC(=O)CSc2nc3ccc(N4C(=O)c5ccccc5C4=O)cc3s2)c1C 39.8 µM [inhibitor, single point]
O=c1[nH]c2sc3c(c2c(=O)n1Cc1ccccc1)CCC3 44.7 µM [inhibitor, single point]
CCOc1ccc2[nH]c(=O)c(CN(CC3COCCO3)C(=O)C3CC3)cc2c1 (stereo not given) 28.2 µM [inhibitor, partial curve]
O=c1c(CCc2ccccc2)nc2cncnc2n1Cc1ccccc1Cl 28.2 µM [inhibitor, single point]
CC(C)Cc1[nH]c(=O)c(C#N)c2c1COC(C)(C)C2 37.7 µM [inhibitor, single point]
CNc1ccc(S(=O)(=O)NCC(=O)OCC(=O)Nc2cccc(Cl)c2Cl)cc1[N+](=O)[O-] 22.4 µM [inhibitor, single point]
COC(Cn1c(-c2cccc(S(=O)(=O)N(C)C)c2)n[nH]c1=S)OC 28.2 µM [inhibitor, single point]
CCCOc1c(Br)cc(C2C3=C(CCCC3=O)N(CC)C3=C2C(=O)CCC3)cc1OC 35.5 µM [inhibitor, single point]
CCNS(=O)(=O)c1ccc(CCC(=O)NCCc2ccc(OC)cc2)cc1 39.8 µM [inhibitor, single point]
Cc1c(C(=O)NCCSCc2ccc(Cl)cc2Cl)cccc1[N+](=O)[O-] 12.6 µM [inhibitor, partial curve]
CCCC(=O)Nc1nc(-c2ccc3c(c2)CCN3S(C)(=O)=O)cs1 39.8 µM [inhibitor, single point]
Cc1ccccc1N1C(S)=C(C#N)C(=O)NC1c1ccco1 (stereo not given) 31.6 µM [inhibitor, single point]
COc1ccccc1NS(=O)(=O)c1ccc(OC)c([N+](=O)[O-])c1 35.5 µM [inhibitor, single point]
Cc1cc(C)n2nc(C(=O)N3CCCC(CNS(=O)(=O)c4cccs4)C3)cc2n1 (stereo not given) 39.8 µM [inhibitor, single point]
CC(=O)c1c(C)n([O-])c2cc(C)ccc2[n+]1=O 44.7 µM [inhibitor, single point]

Potency, active:
CCOC(=O)/C(C#N)=C/c1ccc(OC(=O)c2ccccn2)cc1 8.91 µM
CCN(CCN(C)C)C(=O)c1ccc2c(c1NCCO)C(=O)c1ccccc1C2=O 14.1 µM
COc1ccc(C2CC(=O)C3=C(C2)Nc2ccccc2NC3c2coc3ccccc3c2=O)cc1OC (stereo not given) 10 µM
Cc1cc2nnc(SC3CCCCN(C(=O)c4ccc(F)cc4)C3=O)n2c2ccccc12 (stereo not given) 17.8 µM

Potency, inactive:
COc1ccc(CNC(NC(=O)c2ccccc2)(C(F)(F)F)C(F)(F)F)cc1
COC(=O)c1cnc(Oc2ccc(NC(=O)NC(=O)c3c(OC)cccc3OC)cc2)cc1C(F)(F)F
Cc1csc(NC(=O)c2nc3nccc(C)n3n2)n1
Cc1c(C(=O)NCc2cccnc2)oc2ccc(S(=O)(=O)N3CCCCCC3)cc12
CCOC(=O)O[C@@H](C)OC(=O)[C@@H]1N2C(=O)[C@@H](NC(=O)[C@@H](N)c3ccccc3)[C@H]2SC1(C)C
C=CCn1c(COc2ccc(Cl)cc2)nnc1SCC(=O)Nc1ccc(S(N)(=O)=O)cc1
CCc1cc2cc(OC)ccc2nc1SCC(=O)Nc1cc(OC)c(OC)cc1C(=O)O
COc1ccc(CCN2C(=O)CN(Cc3ccccc3)CC2=O)cc1OC
COc1ccc(CC(=O)NNc2ncnc3c2cnn3-c2ccc(C)cc2)cc1OC
CSC(=N)N
O=C(COc1cccc2cccnc12)Nc1ccccc1N1CCOCC1
O=C(Nc1ccc(OCC(F)(F)C(F)F)c(C(F)(F)F)c1)c1ccccc1O
COCCCNC(=O)c1ccc(C(=O)NCCCOC)cc1
